The other results are listed elsewhere or left out. These are further read-outs of the screen, such as a control signal, another cell line or another target. No call is given for them. The list favours compounds with an active or inconclusive main result. The note in brackets gives the kind of curve behind each potency; many fits are weak.
Test: qHTS Assay for Lipid Storage Modulators (AID 1519)
Conditions: Drosophila S3 cells, BODIPY lipid droplet/cell ratio, laser cytometry, cells loaded with oleic acid
Procedure, shortened: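 Cells seeded at 5,000 per well were treated with compounds over a concentration series and loaded with oleic acid (400 uM, as added). Lipid droplet fluorescence (488 nm excitation, 500-530 nm channel) was read by laser-scanning cytometry and normalized to 20 uM Triacsin C.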

[1] = measured here: cell count channel max response
[2] = measured here: cell number channel AC50
[3] = measured here: lipid (BODIPY) channel AC50
[4] = measured here: lipid channel max response
Tags tell the direction and shape of the fitted curve.

Row | SMILES | max response [1] | AC50 [2] | AC50 [3] | max response [4]
1 | CC(C)=CCC/C(C)=C\COc1c2ccoc2cc2oc(=O)ccc12 | 86.5% | 1.78 µM [rising, full curve] | 1.78 µM [rising, full curve] | 114%
2 | CCNc1ncc2nc(-c3ccc(Cl)cc3)c(=O)n(Cc3cccc(OC)c3)c2n1 | 34.9% | 0.0891 µM [rising, full curve, poor fit] | 0.112 µM [rising, full curve, poor fit] | 41.3%
3 | CN(Cc1ccco1)c1cc(-c2cccc(NS(C)(=O)=O)c2)ncn1 | 31.2% | 1.78 µM [rising, full curve, poor fit] | 2 µM [rising, full curve] | 40.2%
4 | Fc1ccc(Nc2ccnc(-c3ccccc3C(F)(F)F)n2)cc1 | 21.5% | 1 µM [rising, full curve, poor fit] | 1.41 µM [rising, full curve, poor fit] | 28%
5 | COc1ccc(-n2c(=O)c(-c3ccccc3)nc3cncnc32)cc1 | 28.6% | 0.562 µM [rising, full curve, poor fit] | 0.501 µM [rising, full curve] | 35.8%
6 | CC1(C)C(OC(=O)CCC(=O)O)CC[C@]2(C)C1CC[C@@]1(C)C2C(=O)C=C2[C@@H]3C[C@@](C)(C(=O)O)CC[C@]3(C)CCC21C (some centres undefined) | 27.2% | 3.55 µM [rising, full curve, poor fit] | 3.98 µM [rising, full curve] | 35.7%

Source: PubChem BioAssay (NCATS)
